Data: the supplement of paper PMC9446081
About 220 (0.56%) of roughly 39,000 compounds showed activity. The list shows a part of the results.

Each compound was assayed on Escherichia coli K-12 BW25113 (assay: relative growth (OD600 normalised to plate interquartile mean) (fraction); higher = less growth inhibition, active = 0.2 or less). Settings: 50 µM; LB; incubation time: overnight (16-24 h).
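Note: static incubation at 37 °C against the wild-type strain, values averaged over two biological replicates.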

SMILES | relative growth
COC(=O)[C@H]1CNC(=O)C1 | inactive: 0.978
Cl.Clc1ccc(C(OCCN2CCCCC2)c2ccccc2)cc1 (stereo unspecified) | inactive: 0.933
O=c1cccc2n1C[C@@H]1CNC[C@H]2C1 | inactive: 1
c1ccc(N2CCNCC2)nc1 | inactive: 1
CC(C)Oc1ncccc1CN | inactive: 0.977
CCOc1cc(C=O)ccc1O | inactive: 0.911
C[C@@H]1CN([C@@H](C)CO)C(=O)CCCn2nncc2CO[C@@H]1CN(C)C(=O)Oc1cccc2ccccc12 | inactive: 0.981
C[C@@]12C(=O)OC(=O)[C@]1(C)[C@H]1CC[C@@H]2O1 | inactive: 0.933
Cc1cc(O)c2c(=O)c3c(O)cc(O)c4c5c(O)cc(O)c6c(=O)c7c(O)cc(C)c8c1c2c(c34)c(c78)c65 | inactive: 1.61
CC1CC(C)C(=O)C(C(O)CC2CC(=O)NC(=O)C2)C1 (stereo unspecified) | inactive: 0.206
CC(CCc1ccccc1)NC(C)C(O)c1ccc(O)cc1.Cl (stereo unspecified) | inactive: 1.02
N#C[C@]1(O)CN2CCC1CC2 | inactive: 1.01
C[C@@H]1C(=O)NC[C@H]2CN(CC3CC3)C[C@@H]21 | inactive: 0.982
COc1ccc(OC(=O)N(C)C[C@H]2OCc3ccccc3-c3c(n(C)c4ccccc34)C(=O)N([C@H](C)CO)C[C@H]2C)cc1 | inactive: 1.01
CCC1(C)CC(=O)NC(=O)C1 | inactive: 1.04
CC(C)n1cnnc1CCN | inactive: 0.994
COc1cc2c(cc1OC)C1C(=O)c3ccc4oc(C(C)C)cc4c3OC1CO2 (stereo unspecified) | inactive: 0.795
C[C@H](CO)N1C[C@H](C)[C@H](CN(C)C(=O)Oc2cccc3ccccc23)OCc2cn(nn2)CCCC1=O | inactive: 1.05
CCCC(C)(COC(N)=O)COC(=O)NC(C)C (stereo unspecified) | inactive: 1.04
CN1CCOC[C@]2(CCCNC2)C1 | inactive: 0.994
CCC(N)C(O)c1ccc(O)c(O)c1.Cl (stereo unspecified) | inactive: 0.99
N[C@@]1(C(=O)O)CC[C@H](C(=O)O)C1.N[C@]1(C(=O)O)CC[C@@H](C(=O)O)C1 | inactive: 0.973

SMILES | relative growth
COc1ccccc1C1(N)CC1 | inactive: 1.01
CN(C)c1ccc(CCN)cc1 | inactive: 1
CC(O)CN1CCN(CC(=O)[O-])CCN(CC(=O)[O-])CCN(CC(=O)[O-])CC1.[Gd+3] (stereo unspecified) | inactive: 1.09
Cl.NNCc1ccccc1 | inactive: 1.01
COC(=O)[C@@]1(Cc2ccccc2N=[N+]=[N-])N=C(c2ccc(OCCCO)cc2)O[C@H]1c1ccccc1CN=[N+]=[N-] | inactive: 1.03
Oc1ccc(Cl)cc1Cc1cc(Cl)ccc1O | inactive: 0.398
CC(C(O)c1ccccc1)N(C)C (stereo unspecified) | inactive: 0.945
C[C@H](N)[C@H](O)c1ccc(O)c(O)c1 | inactive: 1.02
O=C1CC2(CCNCC2)CN1 | inactive: 0.996
CC(COc1ccc(Oc2ccccc2)cc1)Oc1ccccn1 (stereo unspecified) | inactive: 0.972
COC(=O)C[C@@H]1CC[C@H]2NC[C@@H](O)COC[C@@H]2O1 | inactive: 1.01
O=C1CO[C@H]2CNC[C@@H]2N1CC1CCCC1 | inactive: 1
CN1CCN(CC2CC2)C(=O)C12CCNCC2 | inactive: 1
CC(C)(C)NCC(O)c1ccccc1Cl.Cl (stereo unspecified) | inactive: 1.06
Clc1ccc(C(c2ccc(Cl)cc2)C(Cl)(Cl)Cl)cc1 | inactive: 1.13
Nc1nc(=O)c2ncn([C@H]3O[C@@H](COP(=O)(O)OP(O)(O)=S)[C@H](O)[C@@H]3O)c2[nH]1 | inactive: 1.02
CCC1CN2CCC1CC2C(O)c1ccnc2ccc(OC)cc12 (stereo unspecified) | inactive: 1.1
CN1[C@@H]2C[C@@H](O)C[C@H]1[C@@H]1O[C@@H]12 | inactive: 1.12
COC(=O)[C@@]1(Cc2ccccc2N=[N+]=[N-])N=C(c2ccc(OCCCO)cc2)O[C@H]1c1ccccc1N=[N+]=[N-] | inactive: 1.03
COc1cc(OC)c(OC)cc1C=O | inactive: 0.911
C#CC(C)(O)CC (stereo unspecified) | inactive: 1.05
COc1cc2c(cc1O)CC1c3c(cc(O)c(OC)c3-2)CCN1C (stereo unspecified) | inactive: 0.964

SMILES | relative growth
CC1=C2CC3C(CC=C4CC(O)CCC43C)C2CCC12OC1CC(C)CNC1C2C (stereo unspecified) | inactive: 1.05
CCC(=O)OC1CCC2C3CCC4=CC(=O)CCC4(C)C3CCC12C (stereo unspecified) | inactive: 0.95
NN=C(N)N | inactive: 0.988
C=CCN1C[C@H]2CN(C(C)C)C[C@H]2C1=O | inactive: 1.05
COC(=O)C[C@@H](CN)c1ccc(Cl)cc1 | inactive: 1.01
CN1C2CCC1CC(O)C2 (stereo unspecified) | inactive: 1.12
N[C@@H](Cc1ccccc1)c1ccc2c(c1)OCCO2 | inactive: 0.994
CCOc1ccc(N2CCNCC2)nn1 | inactive: 1
CN1CCc2cc3c(cc2C1O)OCO3.Cl (stereo unspecified) | inactive: 1.01
Cc1ccc(N2CCO[C@@H]3CNCC[C@H]3C2)nn1 | inactive: 1.01
CCOCC(=O)N1C[C@H]2CNC[C@H]2C1 | inactive: 1.01
O[C@H]1CNC[C@@H]1N1CCCCC1 | inactive: 1.04
C[C@]12CC[C@]3(C)OC[C@](CO)(CO1)N23 | inactive: 1.01
Cl.NCC(=O)c1ccccc1 | inactive: 0.975
N#[N+]CC(=O)OC[C@H](N)C(=O)O | inactive: 1.02
O=C1CCO1 | inactive: 0.952
CCC1(CC)C(=O)NC(=O)NC1=O | inactive: 0.887
CN1CC(CNC(=O)OCc2ccccc2)CC2c3cccc4c3c(cn4C)CC21 (stereo unspecified) | inactive: 0.991
CCOCC(=O)N[C@H]1CCSC1=O | inactive: 0.978
COCCCNC(=O)[C@@]1(Cc2ccccc2CN=[N+]=[N-])N=C(c2ccc(OCCCO)cc2)O[C@H]1c1ccccc1CN=[N+]=[N-] | inactive: 1.03
NC(=O)C12CC(CN1)C2 | inactive: 0.998
CN1C[C@@H]2CNC[C@@H]2C1=O | inactive: 1.03

SMILES | relative growth
COc1ccc2[nH]cc(CCN)c2c1 | inactive: 0.995
C=CC1CN2CCC1CC2C(OC(=O)OCC)c1ccnc2ccc(OC)cc12 (stereo unspecified) | inactive: 0.912
N[C@H]1Cc2ccccc2[C@@H]1O | inactive: 0.989
C[C@H]1O[C@H](n2cnc3c(N)ncnc32)C[C@@H]1O | inactive: 0.961
CC(C)C12CN3CCN(CC(C3)C1=O)C2 | inactive: 0.994
C[C@H](CO)N1C[C@H](C)[C@H](CN(C)C(=O)Oc2cccc3ccccc23)OCc2cnnn2CCCC1=O | inactive: 0.991
N[C@@]1(C(=O)O)CC[C@@H](C(=O)O)C1.N[C@]1(C(=O)O)CC[C@H](C(=O)O)C1 | inactive: 1.05
CCOC(=O)[C@H]1[C@@H](C=C(C)C)C1(C)C | inactive: 1.05
Cc1cnc(C(=O)N2C[C@H]3CNC[C@H]3C2)cn1 | inactive: 0.981
CN(C)C(=O)Oc1cc(OC(=O)N(C)C)cc(C(O)CNC(C)(C)C)c1.Cl (stereo unspecified) | inactive: 1.1
CCS(=O)(=O)N1C[C@@H]2CCN[C@@H]2C1 | inactive: 1.01
COc1cc2c(c(OC)c1OC)-c1ccc(O)c(=O)cc1[C@H](N)CC2 | inactive: 0.928
C=CC1CN2CCC1CC2C(O)c1ccnc2ccccc12 (stereo unspecified) | inactive: 0.951
[N-]=[N+]=Nc1ccc2[nH]ccc2c1 | inactive: 0.946
C[C@@H]1C(=O)NC[C@@H]2CN(CC3CC3)C[C@@H]21 | inactive: 0.944
C[C@@H](O)CN1C[C@H]2C[C@@H](C1)c1cccc(=O)n1C2 | inactive: 0.979
COc1cc(C(=O)O)cc(OC)c1OC | inactive: 1.08
N[C@@H](C(=O)O)c1cc(=O)[nH]o1 | inactive: 0.969
NC[C@@H](O)c1ccc(Br)cc1 | inactive: 1
O=[N+]([O-])c1ccc(O)c([N+](=O)[O-])c1 | inactive: 0.802
C=C(C)[C@H]1O[C@H]2CC[C@@]3(C)[C@@](O)(CC[C@H]4[C@@H]5OC(C)(C)[C@H]6C[C@@H]7C(=C)Cc8c(Cl)cc9[nH]c(c5c9c8[C@@]76O)[C@@]43C)[C@]23O[C@@H]3[C@H]1O | inactive: 1.06
NCCCNCCSP(=O)(O)O | inactive: 1.1

SMILES | relative growth
Cc1[nH]c2ccc(O)cc2c1CCN | inactive: 0.972
FC(F)(F)c1nnc(N2CCNCC2)s1 | inactive: 1.07
CNC(C)(C)Cc1ccccc1.O=S(=O)(O)O | inactive: 1.03
COc1ccc(OC)c(C(O)C(C)N)c1.Cl (stereo unspecified) | inactive: 0.985
CC(C)(O)/C=C/C(=O)[C@](C)(O)[C@H]1[C@H](O)C[C@@]2(C)[C@H]3CC=C4[C@@H](CC(=O)C(=O)C4(C)C)[C@]3(C)C(=O)C[C@]12C | inactive: 0.979
NC(=O)c1cn([C@@H]2O[C@H](CO)[C@@H](O)[C@H]2O)c2ncnc(N)c12 | inactive: 0.955
c1ccc2c(c1)[nH]c1cnccc12 | inactive: 0.832
COc1cc(C2c3cc4c(cc3C(O)C3COC(=O)C23)OCO4)cc(OC)c1OC (stereo unspecified) | inactive: 1.05
CN1C(=O)C(O)N=C(c2ccccc2)c2cc(Cl)ccc21 (stereo unspecified) | inactive: 0.849
COc1c2c(cc3c1OCO3)CC[N+](C)=C2.[Cl-] | inactive: 1.01
CCCCCCCCC(=O)NCc1ccc(O)c(OC)c1 | inactive: 0.968
COc1cc2occc2c2oc(=O)ccc12 | inactive: 0.886
COP(=S)(OC)Oc1cc(Cl)c(Cl)cc1Cl | active: 0.0496
CN1CCN(Cc2ccc[nH]2)CC1 | inactive: 1.01
CS(=O)(=O)C1C[C@H]2CC[C@@H](C1)N2 (stereo partly specified) | inactive: 0.999
Nc1ccc([As](=O)(O)O)cc1 | inactive: 0.955
NC(N)=NOCC[C@H](N)C(=O)O | inactive: 0.996
C[C@H](CO)N1C[C@H](C)[C@@H](CN(C)C(=O)Oc2cccc3ccccc23)OCc2cn(nn2)CCCC1=O | inactive: 0.981
